According to the supplement of paper PMC4967469:

Key:
Assay in all cases: Viability of human cancer cell lines after 72 h of drug (GDSC screen)
Wee1 inhibitor 681640 = compound: O=C1NC(=O)c2c1c(-c1ccccc1Cl)cc1[nH]c3ccc(O)cc3c21 [Wee1 inhibitor 681640]; conditions: top dose 2 µM; top dose inferred
Method: (§1)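 Human cancer cell lines in 384-well plates, medium with 10% serum, drug for 72 h over a 256-fold dose range (nine 2-fold or five 4-fold steps up to the top dose). Adherent lines were fixed and stained with the nucleic acid dye Syto60, suspension lines read with resazurin; signal relative to control wells, capped at 0 and 100%. One two-parameter sigmoid per drug and line, fitted in a mixed model over all curves with the slope shared within a line.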

CGP-082996 (CINK4) = compound: CCNc1cc(NC2CCC(O)CC2)nc(Nc2ccc3c(ccn3Cc3ccccc3)c2)n1 [CGP-082996 (CINK4)]; conditions: top dose 5.12 µM; top dose inferred
Method: as §1

A-770041 = compound: COc1cc(-c2nn([C@H]3CC[C@H](N4CCN(C(C)=O)CC4)CC3)c3ncnc(N)c23)ccc1NC(=O)c1cc2ccccc2n1C [A-770041]; conditions: top dose 5.12 µM; top dose inferred
Method: as §1

VX-702 = compound: NC(=O)c1ccc(N(C(N)=O)c2c(F)cccc2F)nc1-c1ccc(F)cc1F [VX-702]; conditions: top dose 2 µM; top dose inferred
Method: as §1

BMS-536924 = compound: Cc1cc(N2CCOCC2)cc2[nH]c(-c3c(NC[C@@H](O)c4cccc(Cl)c4)cc[nH]c3=O)nc12 [BMS-536924]
Method: as §1

SB-525334 = compound: Cc1cccc(-c2[nH]c(C(C)(C)C)nc2-c2ccc3nccnc3c2)n1 [SB-525334]; conditions: top dose 20 µM; top dose inferred
Method: as §1

Shikonin = compound: CC(C)=CC[C@@H](O)C1=CC(=O)c2c(O)ccc(O)c2C1=O [Shikonin]; conditions: top dose 16 µM; top dose inferred
Method: as §1

XMD8-85 = compound: COc1cc(N2CCN(C)CC2)ccc1Nc1ncc2c(n1)N(C)c1ccccc1C(=O)N2C [XMD8-85]; conditions: top dose 8 µM; top dose inferred
Method: as §1

Olaparib = compound: O=C(c1cc(Cc2n[nH]c(=O)c3ccccc23)ccc1F)N1CCN(C(=O)C2CC2)CC1 [Olaparib]
Method: as §1

HG-5-113-01 = compound: CNC(=O)c1ccc(Nc2cc(Nc3ccccc3S(=O)(=O)C(C)C)c3cc[nH]c3n2)nc1 [HG-5-113-01]; conditions: top dose 10 µM; top dose inferred
Method: as §1

BIRB 0796 = compound: Cc1ccc(-n2nc(C(C)(C)C)cc2NC(=O)Nc2ccc(OCCN3CCOCC3)c3ccccc23)cc1 [BIRB 0796]; conditions: top dose 10 µM; top dose inferred
Method: as §1

[1] = top dose 4 µM, screen: GDSC drug entry 1091, top dose inferred
[2] = top dose 5.12 µM, screen: GDSC drug entry 62
[3] = top dose 5 µM, screen: GDSC drug entry 1017, top dose inferred
[4] = top dose 10 µM, screen: GDSC drug entry 1495

H9 (lymphoid neoplasm, suspension)
AUC (Wee1 inhibitor 681640): 0.992 | IC50 (Wee1 inhibitor 681640): > 2 µM | AUC (CGP-082996 (CINK4)): 0.953 | IC50 (CGP-082996 (CINK4)): > 5.12 µM | AUC (A-770041): 0.939 | IC50 (A-770041): > 5.12 µM | AUC (VX-702): 0.992 | IC50 (VX-702): > 2 µM | AUC (BMS-536924; [1]): 0.953 | IC50 (BMS-536924; [1]): > 4 µM | AUC (BMS-536924; [2]): 0.824 | IC50 (BMS-536924; [2]): 2.36 µM | AUC (SB-525334): 0.991 | IC50 (SB-525334): > 20 µM | AUC (Shikonin): 0.304 | IC50 (Shikonin): 0.316 µM | AUC (XMD8-85): 0.708 | IC50 (XMD8-85): 1.7 µM | AUC (Olaparib; [3]): 0.992 | IC50 (Olaparib; [3]): > 5 µM | AUC (Olaparib; [4]): 0.988 | IC50 (Olaparib; [4]): > 10 µM | AUC (HG-5-113-01): 0.671 | IC50 (HG-5-113-01): 1.7 µM | AUC (BIRB 0796): 0.991 | IC50 (BIRB 0796): > 10 µM

HCC2157 (breast, suspension)
AUC (Wee1 inhibitor 681640): 0.987 | IC50 (Wee1 inhibitor 681640): > 2 µM | AUC (CGP-082996 (CINK4)): 0.972 | IC50 (CGP-082996 (CINK4)): > 5.12 µM | AUC (A-770041): 0.986 | IC50 (A-770041): > 5.12 µM | AUC (VX-702): 0.978 | IC50 (VX-702): > 2 µM | AUC (BMS-536924; [1]): 0.931 | IC50 (BMS-536924; [1]): > 4 µM | AUC (BMS-536924; [2]): 0.949 | IC50 (BMS-536924; [2]): > 5.12 µM | AUC (SB-525334): 0.987 | IC50 (SB-525334): > 20 µM | AUC (Shikonin): 0.348 | IC50 (Shikonin): 0.37 µM | AUC (XMD8-85): 0.908 | IC50 (XMD8-85): > 8 µM | AUC (Olaparib; [3]): 0.983 | IC50 (Olaparib; [3]): > 5 µM | AUC (Olaparib; [4]): 0.982 | IC50 (Olaparib; [4]): > 10 µM | AUC (HG-5-113-01): 0.781 | IC50 (HG-5-113-01): 4.36 µM | AUC (BIRB 0796): 0.987 | IC50 (BIRB 0796): > 10 µM

By IC50 is meant the dose at which the fit gives 50% viability; a fit beyond the top or the lowest dose is shown as a bound at that dose. AUC sums up the same curve from the lowest dose to the 256-fold higher top dose; it is 1 without any effect and falls as sensitivity rises. The top dose, if marked as inferred, is not printed in the source and was worked back from the curve model. For some of these results: An entry number marks a drug with two screens in the source, which often give different values.
